According to the supplement of paper PMC10126150:
Sequences with one replicate were seen in a single cluster, so their values are uncertain.

System: ATP
Test: switch fluorescence ratio, 500 uM ATP over buffer (Cy3 cluster intensity, sum of 5 cycles each) (fold (ratio)); higher = stronger signal-on switching upon ATP binding; sequences stand for … in TCGTCGGCAGCGTCAGATGTGTATAAGAGACAGTTTTTTTTTTTTTTTTTTTTTTTTT…TC
Settings: aptamer strand: ATP DNA aptamer (quencher-CACCTGGGGGAGTATTGCGGAGGAAGG + anchor), 100 nM annealed; ATP concentration: 500 uM; one replicate
Method in brief: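 The quencher-labelled ATP aptamer, at 100 nM, was annealed to Cy3-labelled switching-strand clusters on a modified Illumina MiSeq flow-cell. The clusters were imaged in selection buffer, then after 15 min with 500 uM ATP at 22 °C, and this buffer/ATP cycle ran five times with NaOH stripping and re-annealing between runs. Per-cluster fluorescence ratios, summed target-cycle over summed buffer-cycle Cy3 intensity, were averaged per switch-domain sequence. Clusters outside 100-1000 RFU were excluded.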
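Note: ATP exposure 15 min at 22 °C before imaging.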

| Sequence | switch fluorescence ratio |
| --- | --- |
| GACGTTACAG | 1.06 |
| AAAATAGCCC | 1.03 |
| GAGTAGCTTT | 0.984 |
| TCCTTTAAGC | 1.22 |
| CGTGGCTAA | 1 |
| GGCGTTCAAG | 0.984 |
| AGCGATTGTG | 0.953 |
| AGTCGTCAGA | 1 |
| TTCTCTCGGG | 1.05 |
| AGTTAGCGCA | 0.952 |
| CGTTCGACGT | 1.01 |
| ATTGGTCGGT | 0.996 |
| GACTTGTTTT | 1 |
| ATTGGAATGG | 1.03 |
| TGGATTCGTG | 0.996 |
| TCACTCGGTG | 1.01 |
| CGAGCCGGAT | 1.07 |
| AACCGCTGCG | 1.22 |
| GACGGAGGAG | 0.967 |
| AGATTGATA | 0.988 |
| AGTCACATCC | 1.05 |
| GACGCTGGAG | 1 |
| GCTTAGTGG | 0.964 |
| AATCCGAGAC | 1.31 |
| AAGCACAATA | 1.19 |
| AAATTAGCCC | 1 |

| Sequence | switch fluorescence ratio |
| --- | --- |
| TCGATCCCCA | 1.04 |
| TCGTACCACC | 1.21 |
| TATGTTAAG | 0.987 |
| CATATAGTTA | 1.18 |
| GGGGCTGGA | 0.918 |
| GTTGAATGCC | 0.992 |
| ATAAACCAGC | 0.991 |
| CGTTGTTGTG | 1.01 |
| TGGAATGTCA | 0.959 |
| GCAATCGTTG | 1.09 |
| GGACAAGATT | 1 |
| CCTGGGATTG | 0.999 |
| TCCGGCTAGG | 1.01 |
| TTTGTGCTAG | 0.977 |
| CCAGGTTTC | 1.03 |
| TTTCGTCCAT | 1.28 |
| CTTTCGAGG | 1.05 |
| AAGAAACTAA | 1 |
| TTTCGGTATC | 0.969 |
| AAGGCACAGG | 1.25 |
| AAAGGATTAA | 1 |
| AATAGTAACA | 1.01 |
| TTCACTGTAC | 1.56 |
| CTCAACGATC | 1.22 |
| TACTGTCTCC | 1.1 |
| AGTATTTTGA | 0.979 |

| Sequence | switch fluorescence ratio |
| --- | --- |
| GACTGTTGGC | 1.01 |
| AGCTCGACTG | 1.01 |
| GCCTACGTAG | 0.988 |
| TCAAGGAGTG | 0.997 |
| TCTGTTTATC | 0.971 |
| TGGGTAGTCC | 1.05 |
| CCGTTTCTGT | 1.03 |
| AGGCTGATCT | 0.993 |
| TTTAGCGTTC | 0.982 |
| TTTTGGCTGC | 1.04 |
| AGTGGTGAGA | 0.994 |
| ACAGATGCGA | 1.03 |
| AAATGAAGTA | 0.974 |
| AATTACGCAT | 1.26 |
| TTCTCGGTTA | 0.959 |
| GAAGTTTCAT | 1.01 |
| CATAACGGAT | 1.01 |
| GCTTGTTCT | 0.992 |
| CCGAGGTAAG | 2.46 |
| AGAAAAATAT | 1.06 |
| AGTTGTACTT | 1.03 |
| AGATGTTGG | 0.985 |
| TCCGTTACCG | 1.04 |
| GTTTTGAAAG | 1.02 |
| GATGTGCTAG | 0.946 |
| AGGACTAGCC | 1.01 |

| Sequence | switch fluorescence ratio |
| --- | --- |
| AATATGGCCA | 0.999 |
| CGCCCGTGGG | 1.03 |
| GACGAGGAAT | 1.06 |
| ACTCAGGAAT | 2.05 |
| GGGTCTGGGA | 0.991 |
| TCGGTCATAA | 0.99 |
| CGATGGCACG | 1.03 |
| CCGGCACGGG | 1 |
| GTCAGTGCAT | 0.984 |
| AAATCTTTTA | 0.98 |
| CGGCACCATC | 1.18 |
| GCCGATATCC | 1.04 |
| AAGGTGTTAT | 1.07 |
| ATAGTAATC | 1.07 |
| ATTCTGGAGA | 1.02 |
| GGGCATTCCC | 0.987 |
| TTCGCTAGCA | 1.06 |
| TTAAGGAGTT | 1.03 |
| TTGTAAGCG | 0.996 |
| ATGCGGTACT | 1.07 |
| ACCGGTAAAG | 0.991 |
| ATGGAGTTTC | 0.977 |
| TACGGGACT | 1.37 |
| TGGGGTGTCG | 1.05 |
| TACGTCGCAG | 1.03 |
| AGGGTGCAAA | 0.963 |

| Sequence | switch fluorescence ratio |
| --- | --- |
| AAAAGCACCT | 1.41 |
| CAGGCAATCA | 1.17 |
| GGTCAAATGT | 0.993 |
| ATCTCGGGTA | 1.01 |
| GGATCGGGCA | 1.04 |
| GTCAGTGTAA | 1.03 |
| AATATCCAT | 0.951 |
| AGGAAGGCAT | 0.936 |
| ACAAAGTGT | 0.97 |
| ACATAGGTTC | 1.03 |
| AACATAGAA | 1.01 |
| AGCTCCGGAT | 1.12 |
| GTGAGGAAAC | 1.01 |
| TAAGTCTC | 0.959 |
| AACTATTGGG | 1.01 |
| GGTAAGTTTT | 1.01 |
| GTCGGGGAGC | 1.01 |
| TCTTATCCGT | 0.978 |
| ATGTATGAAT | 0.98 |
| CAAAAAACTA | 1.08 |
| ACAGTTGTAC | 1.06 |
| CATACATAGT | 1.07 |
| CGGGGCTGAT | 0.985 |
| AGTTCAAG | 0.922 |
| CTGGACAGGT | 0.966 |
| GATGCTGAGT | 1.02 |

| Sequence | switch fluorescence ratio |
| --- | --- |
| CACCTGAATA | 1.02 |
| AAGCAATGGT | 2.15 |
| CTGTGCAAG | 1.28 |
| CGTTAGATAT | 0.968 |
| CCTTAGGCGT | 1.04 |
| TTACTAGGAA | 0.992 |
| CAGGCATGT | 1.04 |
| AAGTAGATTA | 1 |
| GGGTGAGGAA | 1.02 |
| GAAGGTGAAC | 1.04 |
| TATATCGACA | 0.974 |
| TCGTTGTACG | 1.02 |
| ACCTTATAGA | 1.04 |
| GGCCTTATAT | 0.983 |
| GATCTACCAT | 1.06 |
| CGCGGCAGAA | 1.06 |
| TTCGTGGGAT | 1.05 |
| TGCCATGAGG | 1.46 |
| ATGGCTCTGG | 1.01 |
| CTCGAGTACT | 1.05 |
| GGTCTGCGGT | 1.06 |
| GTGTCCTCCG | 2.69 |
| TGTACGAGTC | 0.918 |
| TATACTGGTA | 1.02 |
| AGGATTACAG | 1.05 |
| TTAATATTAG | 0.98 |

| Sequence | switch fluorescence ratio |
| --- | --- |
| AAAGTTCTAA | 0.974 |
| ACGTGACATG | 1.11 |
| ATCACGGATT | 1.04 |
| TATAGCTTCT | 1.07 |
| ACGCTCTCCA | 1.31 |
| AAGATTCCCT | 1.04 |
| TGGAGAGCAC | 1.02 |
| GATAAAGGCG | 1.03 |
| TCCTGGCCGT | 1.07 |
| ACATATCGTG | 0.956 |
| TTTCTATTGT | 0.992 |
| AAGGTTTTGA | 0.986 |
| AGGAATTTCC | 0.98 |
| ACGCGCTTCA | 1.03 |
| TTACCTTGTC | 1.13 |
| TATCTAGATC | 1.04 |
| GGGCCGAAAG | 1.01 |
| AGTGACGCCT | 0.994 |
| TAATACGGCT | 0.981 |
| CTTATAAGCG | 0.982 |
| CGGCTAATCT | 1.01 |
| GATAGTTCTG | 0.963 |
| CATATAAATC | 1.04 |
| ATTACGCACA | 1.81 |
| GGCAGGTTGC | 0.986 |
| CAATGTTACG | 0.996 |

| Sequence | switch fluorescence ratio |
| --- | --- |
| CTGGGTATAT | 0.979 |
| GAGGCGGAA | 1.04 |
| TGGCTAAAA | 0.99 |
| GTGTAAGGAA | 0.973 |
| TACGGAGGG | 1.04 |
| GGGCCTGCTG | 0.974 |
| TCTGAGGAAG | 1.01 |
| GCGTTAGGAC | 1.02 |
| CTGCCGCGCG | 1.03 |
| CGAGTCCTT | 1.02 |
| GTAAAAATG | 0.993 |
| AGGTCCAAGG | 1 |
| AAACCGGTCA | 1.01 |
| AAGGTTGTTC | 1.01 |
| TACAGAGCC | 0.989 |
| GGATAGTGGA | 1.02 |
| GATAACCCAT | 0.949 |
| GGACTATCCT | 0.994 |
| TTGAGAGGTG | 1.1 |
